Laboratory results: PubChem BioAssay AID1745853 (National Center for Advancing Translational Sciences (NCATS), 2022)
Some of the results follow. The main result of the screen is listed elsewhere. These columns were measured beside it and carry no call.

Key:
Experiment in all cases: Primary Screen for Target Class Profiling of Small Molecule Inhibitors of Methyltransferases
[1] = biological target: Glycine N-methyltransferase (Homo sapiens) (UniProt Q14749); conditions: purified enzyme, MTase-Glo SAH luminescence; measured here: GNMT inhibition; at 40 µM; stronger effect = lower value
Summary of the method: (§1)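 Each enzyme was assayed with SAM and its substrate. SAH formation detected by MTase-Glo luminescence; single-point 40 uM screen[…].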

[2] = biological target: Guanidinoacetate N-methyltransferase (Homo sapiens) (UniProt Q14353); conditions: purified enzyme, MTase-Glo SAH luminescence; measured here: GAMT inhibition; at 40 µM; stronger effect = lower value
Summary of the method: as §1

[3] = biological target: Histamine N-methyltransferase (Homo sapiens) (UniProt P50135); conditions: purified enzyme, MTase-Glo SAH luminescence; measured here: HNMT inhibition; at 40 µM; stronger effect = lower value
Summary of the method: as §1

[4] = biological target: Nicotinamide N-methyltransferase (Homo sapiens) (UniProt P40261); conditions: purified enzyme, MTase-Glo SAH luminescence; measured here: NNMT inhibition; at 40 µM; stronger effect = lower value
Summary of the method: as §1

[5] = biological target: Phenylethanolamine N-methyltransferase (Homo sapiens) (UniProt P11086); conditions: purified enzyme, MTase-Glo SAH luminescence; measured here: PNMT inhibition; at 40 µM; stronger effect = lower value
Summary of the method: as §1
On the % scale 0 is the no-effect control and ±100 the full control effect.

| SMILES | activity change, negative = inhibition [1] | activity change, negative = inhibition [2] | activity change, negative = inhibition [3] | activity change, negative = inhibition [4] | activity change, negative = inhibition [5] |
| --- | --- | --- | --- | --- | --- |
| COC(=O)c1cc2n(n1)CC(C)(C(=O)NC1CCCCC1)N(c1ccccc1C)C2=O (stereo not drawn) | 8.3% | 0% | 9.69% | 11.2% | 6.95% |
| CCCn1c(=O)c2cc(Cl)ccc2n2c(SCC(=O)Nc3cc(Cl)ccc3OC)nnc12 | 1.48% | 0.99% | 6.08% | 4.44% | 1.29% |
| CSc1cccc(NC(=O)c2cc3n(n2)CC(C)(C(=O)NC2CCCCC2)N(C)C3=O)c1 (stereo not drawn) | 3.51% | 0% | 0.262% | 3.84% | 0.188% |
| O=S(=O)(NCCn1c(-c2ccccc2)nc2ccccc21)c1cc(F)ccc1F | -6.72% | -4.04% | -0.998% | -15.5% | -3.34% |
| O=C1NC2(CCN(Cc3cccc4ccccc34)C2)OCc2ccccc21 (stereo not drawn) | -25.4% | -9.49% | -5.3% | -15.7% | -15.1% |
| CO[C@H]1O[C@@H]2O[C@]3(C)CC[C@H]4[C@H](C)CC[C@@H]([C@H]1C)[C@@]24OO3 | 2.84% | – | 9.59% | – | – |
| CC[C@H]1CN(C(=O)NC2CCCCC2)CC[C@H]1CC(=O)NCc1ccco1 | -8.24% | -9.48% | -4.54% | -17.4% | 5.72% |
| O=C(NCc1ccc(Cl)cc1)[C@@H]1Cc2nc[nH]c2CN1Cc1cc2ccccc2o1 | -12.8% | -7.7% | -11.8% | -21.1% | -5% |
| COc1ccccc1CNC(=O)C1(C)Cn2nc(-c3ccccc3)cc2C(=O)N1c1ccc(C)c(C)c1 (stereo not drawn) | 6.6% | 4.96% | 10.3% | 7.16% | -1.63% |
| CC(C(O)c1ccccc1)N(C)CCOC(c1ccccc1)c1ccccc1 (stereo not drawn) | 1.33% | 18.3% | -15.4% | -11.8% | -1.91% |
| COCC(=O)N1CCC(Oc2ccccc2C(=O)N(C)Cc2ncccc2C)CC1 | -0.147% | -1.56% | -1.53% | -3.83% | -18.8% |
| CC1CCCN1c1ncnc2c1CN(c1ccccc1F)C(=O)CN2C (stereo not drawn) | -9.29% | -11% | -8.26% | -22% | -10.3% |
| c1nc2nc(Nc3ccc(N4CCOCC4)cc3)nc(NC3CCCCC3)c2[nH]1 | -22.1% | -3.08% | -28.8% | -39.6% | -9.84% |
| CCCN1C(=O)c2c(C(=O)NCCc3cccs3)ncn2CC1(C)C(=O)NCCC(C)C (stereo not drawn) | -4.01% | 0% | -2.96% | -5.59% | -0.456% |
| CN1CCc2cc(Nc3ncc(C4CC4)c(NCCCNC(=O)C4CCC4)n3)ccc2C1 | – | -10.9% | – | -28.8% | -9.68% |
| CC(=O)N1CCC(Cc2ccc(C(=O)N(C)Cc3cccnc3)cc2)CC1 | -1.56% | -2.4% | 1.38% | -1.95% | -1.61% |
| COc1ccccc1CCN1C(=O)c2cc3ccccc3n2CC1(C)C(=O)NCc1ccccc1 (stereo not drawn) | -10.7% | 1.79% | -2.3% | -4.28% | -2.96% |
| Cc1nc(N2CCCCC2)n(CC(=O)Nc2ccc(Br)cc2)c(=O)c1C | -4.69% | -3.26% | -4.12% | -5.32% | 1.02% |
| CCCCCCCC/C=C\CCCCCCCC(=O)NCCO | -4.78% | 2.45% | -2.09% | -12.3% | -5.04% |
| CCc1ccc(NC(=O)N2CCN(C)C3(CCC(=O)N(C)CC3)C2)cc1 (stereo not drawn) | -1.31% | -2.68% | -0.547% | -3.82% | 0.372% |

| SMILES | activity change, negative = inhibition [1] | activity change, negative = inhibition [2] | activity change, negative = inhibition [3] | activity change, negative = inhibition [4] | activity change, negative = inhibition [5] |
| --- | --- | --- | --- | --- | --- |
| Cc1occc1C(=O)N1CCC2(CC1)N=C(CC(C)C)NC2=O | -1.75% | -1.89% | 0.064% | 0.383% | -0.241% |
| CC[C@@H]1[C@H]2CCCCN3C(=O)C[C@H]([C@@H]4[C@H]1OC(=O)[C@H]4C)[C@@H]23 | 2.78% | 3.92% | 3.89% | -6.8% | 1.62% |
| CC1(C(=O)NC2CCCCC2)Cn2c(cc3sccc32)C(=O)N1Cc1ccccc1 (stereo not drawn) | -2.9% | 1.28% | 0.384% | 1.01% | -0.871% |
| C/C=C/[C@@H]1C=C[C@@H]2C[C@H](C)CC[C@H]2[C@]1(C)/C(O)=C1/C(=O)[C@@H](CO)N(C)C1=O | 3.52% | 19.8% | 6.4% | 4.74% | 8.99% |
| Cc1ccc(Cn2c(=O)c3ccc(C(=O)NCC(C)C)cc3n3c(=O)[nH]nc23)cc1 | -9.16% | 0.114% | 2.02% | -19.8% | -5.95% |
| COc1ccccc1CCNC(=O)CCn1ccc2cc(S(=O)(=O)N3CCCCC3)ccc21 | -1.84% | -2.67% | 2.39% | -10.7% | -7.66% |
| Cc1ccccc1OCC(=O)Nc1cccn2nc(-c3cccnc3)nc12 | -1.05% | 0.208% | 2.67% | -5.18% | -1.24% |
| Cc1cc2c(cc3n2CC(C)(C(=O)NC2CCCCCC2)N(CCc2ccccc2)C3=O)o1 (stereo not drawn) | 5.6% | -26.7% | 8.85% | 3.72% | 4% |
| Clc1ncoc1-c1c[nH]c2ccccc12 | -2.06% | -5.74% | 2.02% | -19.5% | -15.4% |
| CC(C)(O[C@@H]1O[C@H](CO)[C@@H](O)[C@H](O)[C@H]1O)C(OC(=O)/C=C\c1ccc(O)cc1)C(=O)OCc1ccc(O[C@@H]2O[C@H](CO)[C@@H](O)[C@H](O)[C@H]2O)cc1 (stereo partly drawn) | 3.64% | 1% | -1.87% | -9.03% | 0.369% |
| CCC(C)NC(=O)c1ccc2c(=O)n(C)c3nn(Cc4ccccc4C)c(=O)n3c2c1 (stereo not drawn) | 1.32% | 3.7% | 5.57% | 1.08% | 3.62% |
| C[C@@H](O)[C@H]1C(=O)N2C(C(=O)O)=C(S[C@@H]3CN[C@H](C(=O)N(C)C)C3)[C@H](C)[C@H]12 | – | 2.99% | – | -9.49% | -0.512% |
| CC(O)CO[C@@H]1O[C@H](CO)[C@@H](O)[C@H](O)[C@H]1O (stereo partly drawn) | 0% | 8.25% | -8.21% | -5.45% | 5.87% |
| Cc1nc(N2CCC(NC(=O)C3CCCCC3)CC2)cc(C(F)(F)F)n1 | -2.82% | -6.57% | -1.4% | -0.23% | -23.4% |
| Cc1ccc(N2C(=O)c3cc4oc(C)cc4n3CC2(C)C(=O)NC2CCCCCC2)c(C)c1 (stereo not drawn) | 0.322% | 5.08% | 4.86% | 9.87% | -1.42% |
| CC(C)Cc1cnc(C2CCCN(C(=O)OC(C)(C)C)C2)[nH]1 (stereo not drawn) | -1.47% | 0.933% | -1.87% | -5.25% | -4.99% |
| Cc1cccc(C(=O)N2CCCC(c3noc(-c4cc5c(=O)[nH]c(C)cn5n4)n3)C2)c1 (stereo not drawn) | -7.58% | -7.8% | -4.57% | -19.5% | -2.22% |
| O=C1NC(=NC2CCCC2)C2(CCN(Cc3cccnc3)C2)N1c1cc(F)cc(F)c1 (stereo not drawn) | -7.67% | -11% | -5.84% | -21.4% | -14% |
| CCC(C)(C)C(=O)N1CCC2(CC1)N(C)C(=O)CS2(=O)=O | -2.04% | 1.61% | 2.27% | -5.98% | -3.64% |
